Measurements as given in the supplement of paper PMC10338343.
± gives the standard deviation. This is a selection; strong and weak results do not stand in their true shares.

What follows are sequences tested on MIWI (PIWIL1) piRISC loaded with piRNA #1 (30 nt) (assay: pre-steady-state target cleavage rate (min^-1); MIWI and MILI are mouse PIWI proteins and EfPiwi is from a freshwater sponge; tags in brackets are library labels; higher = faster piRNA-guided slicing of the target). Details: guide: piRNA #1 5'p-UGAGGUAGUAGGUUGUAUAGUAUCCAGAGG; auxiliary factor: 500 nM mouse GTSF1.
Outline: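 In Cleave-'n-Seq, a transcribed, DNA-blocked target RNA library (0.1 nM) was combined with 1 nM active affinity-purified piRISC bearing one synthetic guide, with or without 500 nM GTSF1 partner protein. Reactions ran in HEPES–potassium acetate buffer at 33 °C for 0–8 or 0–960 min. Uncleaved targets were sequenced and normalised to depth and to weakly complementary targets, three trials were pooled, and k3 was capped at 0.0001 min^-1. The pre-steady-state cleavage rate was obtained by fitting a burst-and-steady-state model.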

| Sequence | pre-steady-state target cleavage rate |
| --- | --- |
| GGAGACCUAACUAUACUUCCUACUACCUCA | 0.00609 ± 0.004 |
| GGACUGGAUACUAAACAACCUACUACGUCA | 0.589 ± 0.069 |
| GCUCUGGAUACUUUACAACCUUCUACCUCA | 0.604 ± 0.029 |
| GCUCUGGAUACUAUACUACCUAGUACCUCA | 0.396 ± 0.056 |
| GGAGUGGAUACUAAACAACGUACUACCUCA | 0.553 ± 0.038 |
| GGAGAGGAUACUAUACAACCAACUACCACA | 0.103 ± 0.0098 |
| GGAGACCAUACUUUACAACCUUCUACCUCA | 0.415 ± 0.036 |
| GGAGAGGAUACUAUACAACCUACUACACUCA | 0.864 ± 0.088 |
| GGAGAGGAUACUAUACAUGCUACUACCUCA | 0.486 ± 0.036 |
| GGAGACCUUACUAUACAACCACUACCUCA | 0.00306 ± 0.0027 |
| GGAGACCUAUGAUAUGUACCUACUACCCA | < 0.0001 |
| GGUGACGAUACUAUACAACCUACUACCUCA | 1.82 ± 0.098 |
| GGAGACCAUACUAUACAUCCUACUACCUGA | 0.856 ± 0.054 |
| GGAGUGGAUACUAUACUACCUUCUACCUCA | 0.226 ± 0.021 |
| GGAGACGAUACUAUACAACGUACUUCCUCA | 0.313 ± 0.034 |
| GGAGACGAUACUAUACAACCUACCACCUCA | 0.737 ± 0.045 |
